Results published in the supplement of paper PMC10724272.
MIC of invasive clinical C. tropicalis isolates, CLSI broth microdilution (fluconazole 0.12-256 mg/L, up to 1,024 for the azole-resistant cluster and its neighbour group; other ranges not stated); higher = less susceptible. Call: susceptible or wild type [S] / resistant or non-wild type [R] by CLSI breakpoints or cut-offs; intermediate and dose-dependent carry no call. '<=' and '>=' at the end values are inferred; the source marks only some of them. Isolates are numbered anew.

These test systems were tested with CC[C@H](C)C[C@H](C)CCCCCCCCC(=O)N[C@H]1C[C@@H](O)[C@@H](NCCN)NC(=O)[C@@H]2[C@@H](O)CCN2C(=O)[C@H]([C@H](O)CCN)NC(=O)[C@H]([C@H](O)[C@@H](O)c2ccc(O)cc2)NC(=O)[C@@H]2C[C@@H](O)CN2C(=O)[C@H]([C@@H](C)O)NC1=O [caspofungin] (assay: CLSI broth microdilution.).

Q: “Candida tropicalis isolate 53 (ERG11 copies: 2, Erg11p: no key change)” was tested. Which MIC did it give?
A: The MIC was 0.03 mg/L [S].

Q: “Candida tropicalis isolate 335 (ERG11 copies: 2, Erg11p: no key change)” was tested. Which MIC did it give?
A: The MIC was 0.06 mg/L [S].

Q: For “Candida tropicalis isolate 428 (ERG11 copies: 2, Erg11p: Y257H (homozygous))”, which MIC is on record?
A: Its MIC is 0.03 mg/L [S].

Q: Which MIC does the source give for “Candida tropicalis isolate 176 (ERG11 copies: 2, Erg11p: no key change)” here?
A: The MIC was 0.015 mg/L [S].

Q: For “Candida tropicalis isolate 292 (ERG11 copies: 2, Erg11p: no key change)”, which MIC is on record?
A: Its MIC is 0.03 mg/L [S].

Q: With “Candida tropicalis isolate 432 (ERG11 copies: 2, Erg11p: no key change)” as the test system, how does the MIC read?
A: Its MIC is 0.06 mg/L [S].

Q: For “Candida tropicalis isolate 186 (ERG11 copies: 2, Erg11p: no key change)”, which MIC is on record?
A: Its MIC is 0.03 mg/L [S].

Q: With “Candida tropicalis isolate 414 (ERG11 copies: 2, Erg11p: no key change)” as the test system, how does the MIC read?
A: The MIC was 0.03 mg/L [S].

Q: For “Candida tropicalis isolate 323 (ERG11 copies: 2, Erg11p: no key change)”, which MIC is on record?
A: Its MIC is 0.06 mg/L [S].

Q: How did the MIC turn out when “Candida tropicalis isolate 9 (ERG11 copies: 2, Erg11p: no key change)” was run?
A: The MIC was 0.03 mg/L [S].

Q: Which MIC does the source give for “Candida tropicalis isolate 172 (ERG11 copies: 2, Erg11p: no key change)” here?
A: Its MIC is 0.25 mg/L [S].

Q: Which MIC does the source give for “Candida tropicalis isolate 61 (ERG11 copies: 2, Erg11p: no key change)” here?
A: Its MIC is 0.03 mg/L [S].

Q: How did the MIC turn out when “Candida tropicalis isolate 343 (ERG11 copies: 2, Erg11p: no key change)” was run?
A: Its MIC is 0.03 mg/L [S].

Q: Which MIC does the source give for “Candida tropicalis isolate 423 (ERG11 copies: 8, Erg11p: Y132F, S154F (heterozygous))” here?
A: Its MIC is 0.06 mg/L [S].

Q: With “Candida tropicalis isolate 108 (ERG11 copies: 2, Erg11p: Y132F, S154F (heterozygous))” as the test system, how does the MIC read?
A: Its MIC is 0.06 mg/L [S].

Q: For “Candida tropicalis isolate 253 (ERG11 copies: 2, Erg11p: no key change)”, which MIC is on record?
A: Its MIC is 0.25 mg/L [S].

Q: For “Candida tropicalis isolate 219 (ERG11 copies: 2, Erg11p: no key change)”, which MIC is on record?
A: Its MIC is 0.06 mg/L [S].

Q: With “Candida tropicalis isolate 375 (ERG11 copies: 2, Erg11p: no key change)” as the test system, how does the MIC read?
A: The MIC was 0.03 mg/L [S].

The test systems below were run with C[C@@H](c1ncncc1F)[C@](O)(Cn1cncn1)c1ccc(F)cc1F [voriconazole] (assay: CLSI broth microdilution.).

Q: With “Candida tropicalis isolate 424 (ERG11 copies: 2, Erg11p: no key change)” as the test system, how does the MIC read?
A: Its MIC is 0.06 mg/L [S].

Q: Which MIC does the source give for “Candida tropicalis isolate 192 (ERG11 copies: 2, Erg11p: no key change)” here?
A: Its MIC is 0.12 mg/L [S].

Q: “Candida tropicalis isolate 212 (ERG11 copies: 2, Erg11p: no key change)” was tested. Which MIC did it give?
A: The MIC was 1 mg/L [R].

Q: Which MIC does the source give for “Candida tropicalis isolate 98 (ERG11 copies: 2, Erg11p: no key change)” here?
A: Its MIC is 0.12 mg/L [S].

Q: Which MIC does the source give for “Candida tropicalis isolate 337 (ERG11 copies: 2, Erg11p: no key change)” here?
A: The MIC was 0.12 mg/L [S].

Q: For “Candida tropicalis isolate 3 (ERG11 copies: 7, Erg11p: Y132F, S154F (heterozygous))”, which MIC is on record?
A: Its MIC is no less than 8 mg/L [R].

Q: Which MIC does the source give for “Candida tropicalis isolate 381 (ERG11 copies: 7, Erg11p: Y132F, S154F (heterozygous))” here?
A: Its MIC is no less than 8 mg/L [R].

Q: With “Candida tropicalis isolate 97 (ERG11 copies: 2, Erg11p: no key change)” as the test system, how does the MIC read?
A: Its MIC is 0.06 mg/L [S].

Q: Which MIC does the source give for “Candida tropicalis isolate 433 (ERG11 copies: 2, Erg11p: no key change)” here?
A: The MIC was 0.12 mg/L [S].

Q: With “Candida tropicalis isolate 135 (ERG11 copies: 2, Erg11p: no key change)” as the test system, how does the MIC read?
A: The MIC was 0.12 mg/L [S].

Q: How did the MIC turn out when “Candida tropicalis isolate 151 (ERG11 copies: 2, Erg11p: no key change)” was run?
A: Its MIC is 0.06 mg/L [S].

Q: “Candida tropicalis isolate 86 (ERG11 copies: 2, Erg11p: no key change)” was tested. Which MIC did it give?
A: Its MIC is 0.06 mg/L [S].

Q: “Candida tropicalis isolate 371 (ERG11 copies: 2, Erg11p: no key change)” was tested. Which MIC did it give?
A: Its MIC is 0.12 mg/L [S].

Q: For “Candida tropicalis isolate 333 (ERG11 copies: 2, Erg11p: no key change)”, which MIC is on record?
A: Its MIC is 0.06 mg/L [S].

Q: How did the MIC turn out when “Candida tropicalis isolate 218 (ERG11 copies: 2, Erg11p: no key change)” was run?
A: The MIC was 0.12 mg/L [S].

Q: How did the MIC turn out when “Candida tropicalis isolate 448 (ERG11 copies: 7, Erg11p: Y132F, S154F (heterozygous))” was run?
A: Its MIC is greater than 8 mg/L [R].

Q: With “Candida tropicalis isolate 339 (ERG11 copies: 3, Erg11p: Y132F, S154F (heterozygous))” as the test system, how does the MIC read?
A: The MIC was no less than 8 mg/L [R].

Q: For “Candida tropicalis isolate 177 (ERG11 copies: 2, Erg11p: no key change)”, which MIC is on record?
A: The MIC was 0.03 mg/L [S].

Q: Which MIC does the source give for “Candida tropicalis isolate 53 (ERG11 copies: 2, Erg11p: no key change)” here?
A: The MIC was 0.06 mg/L [S].

Q: Which MIC does the source give for “Candida tropicalis isolate 335 (ERG11 copies: 2, Erg11p: no key change)” here?
A: The MIC was no more than 0.008 mg/L [S].

Q: For “Candida tropicalis isolate 428 (ERG11 copies: 2, Erg11p: Y257H (homozygous))”, which MIC is on record?
A: The MIC was 1 mg/L [R].

Q: “Candida tropicalis isolate 176 (ERG11 copies: 2, Erg11p: no key change)” was tested. Which MIC did it give?
A: The MIC was 0.12 mg/L [S].
